The text below walks through data of patent US20150044216A1 (BIO THERA SOLUTIONS, published 2015).

For experiment [1], the target named is T1, VEGF (UniProt P15692-4 27-191, limits assumed).
T1 sequence (looked up): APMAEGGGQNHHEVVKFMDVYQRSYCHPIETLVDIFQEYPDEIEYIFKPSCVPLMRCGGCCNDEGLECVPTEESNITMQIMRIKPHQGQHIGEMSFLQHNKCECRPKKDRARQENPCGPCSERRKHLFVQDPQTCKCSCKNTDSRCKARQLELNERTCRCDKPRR
As to the kind of experiment: cell-based or functional assay.

In experiment [2] the target is T2, EGFR antigen (coated on ELISA plate) (UniProt P00533 in part, limits assumed).
T2 construct: The construct of the coated antigen is not described
As to the kind of experiment: ELISA affinity constant (Kaff), antigen coated at 1, 2 and 4 µg/mL.

Experiment [3] addresses T1, VEGF. The description is as above.

B1: Antibody 906 (bispecific antibody, human IgG1, kappa)
light: DIQMTQSPSSLSASVGDRVTITCQASQDISNYLNWYQQKPGKAPKLLIYDASNLETGVPSRFSGSGSGTDFTFTISSLQPEDIATYFCQHFDHLPLAFGGGTKVEIKRTVAAPSVFIFPPSDEQLKSGTASVVCLLNNFYPREAKVQWKVDNALQSGNSQESVTEQDSKDSTYSLSSTLTLSKADYEKHKVYACEVTHQGLSSPVTKSFNRGEC
heavy: QVQESGPGLVKPSETLSLTCTVSGGSVSSGDYYWTWIRQSPGKGLEWIGHIYYSGNTNYNPSLKSRLTISIDTSKTQFSLKLSSVTAADTAIYYCVRDRVTGAFDIWGQGTLVTVSS[human IgG1 constant region not shown]GGGGSGGGGSGGGGSEVQLVESGGGLVQPGGSLRLSCAASGYDFTHYGMNWVRQAPGKCLEWVGWINTYTGEPTYAADFKRRFTFSLDTSKSTAYLQMNSLRAEDTAVYYCAKYPYYYGTSHWYFDVWGQGTLVTVSSGGGGSGGGGSGGGGSGGGGSDIQLTQSPSSLSASVGDRVTITCSASQDISNYLNWYQQKPGKAPKVLIYFTSSLHSGVPSRFSGSGSGTDFTLTISSLQPEDFATYYCQQYSTVPWTFGCGTKVEIK
notes: also called anti-EGFR and anti-VEGF bispecific antibody
In the case of B1, in the experiment with VEGF [1], the “inhibition of VEGF-stimulated HUVEC growth (CCK-8), EC50” value was 0.025 µg/mL and the “potency in inhibition of VEGF-stimulated HUVEC growth against Bevacizumab” value is around 5 fold. The molecule further yielded a Ka in experiment [2] of 5.7e+08 M⁻¹. In the experiment with VEGF [3], this molecule gave a Ka of 2.53e+08 M⁻¹.
